Experimental data reported in the supplement of paper PMC9446081.
The whole screen tested about 39,000 compounds, of which about 220 (0.56%) showed activity. This is one part of the list.

System: Escherichia coli K-12 BW25113
Assay: relative growth (OD600 normalised to plate interquartile mean) (fraction); higher = less growth inhibition, active = 0.2 or less
Details: 50 µM; LB; incubation time: overnight (16-24 h)
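Further: static incubation at 37 °C against the wild-type strain, values averaged over two biological replicates.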

| Compound | relative growth |
| --- | --- |
| CC(C)(O)C#Cc1ccc([C@H]2[C@@H](CO)N3CCCCN(S(C)(=O)=O)C[C@@H]23)cc1 | inactive: 1.01 |
| COc1ccc(NC(=O)Nc2ccc3c(c2)C(=O)N([C@@H](C)CO)C[C@H](C)[C@@H](CN(C)Cc2ccncc2)OCCCC[C@@H](C)O3)cc1 | inactive: 1.02 |
| O=C(C[C@@H]1C[C@@H]2c3cc(NC(=O)Nc4ccc(C(F)(F)F)cc4)ccc3O[C@@H]2[C@@H](CO)O1)NCc1ccc(Cl)cc1 | inactive: 1 |
| O=C(C[C@@H]1CC[C@H]2[C@@H](COC[C@@H](O)CN2S(=O)(=O)c2ccccc2Cl)O1)NCCc1ccncc1 | inactive: 0.985 |
| C[C@H](CO)N1C[C@H](C)[C@@H](CN(C)Cc2ccc3c(c2)OCO3)OCCCC[C@H](C)Oc2ccc(NC(=O)Nc3ccccc3)cc2C1=O | inactive: 0.986 |
| CCOC(=O)c1c(C)n[nH]c1N | inactive: 0.963 |
| COc1ccc(-c2cn3cc(C(=O)NCC(N)=O)nc3c(=O)n2CC2CC2)c(F)c1 | inactive: 0.976 |
| Cc1noc(C)c1NC(=O)Nc1ccc2c(c1)C(=O)N([C@H](C)CO)C[C@@H](C)[C@H](CN(C)Cc1ccc(Cl)c(Cl)c1)OCCCC[C@@H](C)O2 | inactive: 0.939 |
| CC(=O)C1CCN(C(C)=O)CC1 | inactive: 1 |
| C[C@H](CO)N1C[C@H](C)[C@H](CN(C)Cc2ccc(Oc3ccccc3)cc2)Oc2ccc(NC(=O)Nc3ccc(C(F)(F)F)cc3)cc2CC1=O | inactive: 1.02 |
| COc1ccc(NC(=O)N(C)C[C@H]2OCCCC[C@H](C)Oc3ccc(NC(=O)Nc4ccc(C(F)(F)F)cc4)cc3C(=O)N([C@H](C)CO)C[C@@H]2C)cc1 | inactive: 0.996 |
| CNC(=O)c1cnc2n1CCN(Cc1nccn1C)C2 | inactive: 0.971 |
| NC(=O)c1cc2ccccc2o/c1=N\O | inactive: 0.929 |
| C[C@H](O)C#Cc1ccc2c(c1)O[C@@H](CN(C)C(=O)c1ccncc1)[C@H](C)CN([C@@H](C)CO)S2(=O)=O | inactive: 1.03 |
| C[C@@H]1CN([C@H](C)CO)C(=O)Cc2cc(NS(=O)(=O)c3cccs3)ccc2O[C@H]1CN(C)S(=O)(=O)c1ccc(F)cc1 | inactive: 1.03 |
| COC(=O)C[C@@H]1C(C)(C)[C@H](OC(C)=O)[C@@H]2[C@@H](OC(C)=O)[C@]34O[C@@]2(O)[C@]1(C)[C@H]3CC[C@]1(C)C4=CC(=O)O[C@H]1c1ccoc1 | inactive: 0.981 |
| Cc1ccc(S(=O)(=O)N(C)C[C@H]2OCCCC[C@@H](C)Oc3ccc(NS(=O)(=O)c4ccc(Cl)cc4)cc3C(=O)N([C@H](C)CO)C[C@@H]2C)cc1 | inactive: 1.04 |
| CC(C)[C@H]1C(=O)N[C@@H](CCCNC(=N)N)C(=O)NCC(=O)N[C@@H](CC(=O)O)C(=O)N[C@H](Cc2ccccc2)C(=O)N1C | inactive: 1.01 |
| O=C(C[C@@H]1CC[C@H]2[C@@H](COC[C@@H](O)CN2Cc2ccccc2F)O1)N[C@H]1CCN(Cc2ccccc2)C1 | inactive: 0.995 |
| C/C(=C/CC[C@@H](CO)[C@H]1CC[C@@]2(C)[C@H]3CC[C@@H]4C(C)(C)[C@H](O[C@H]5O[C@@H](CO)[C@@H](O)[C@@H](O)[C@@H]5O)C[C@H](O)[C@@]45C[C@@]35CC[C@@]12C)CO[C@H]1O[C@@H](CO)[C@@H](O)[C@@H](O)[C@@H]1O | inactive: 0.982 |

| Compound | relative growth |
| --- | --- |
| C[C@@H]1CN([C@@H](C)CO)S(=O)(=O)c2ccc(C#Cc3ccc(F)cc3)cc2O[C@@H]1CN(C)C(=O)c1ccccn1 | inactive: 0.963 |
| C[C@@H]1CN([C@@H](C)CO)C(=O)Cc2cc(NC(=O)Cn3cnnn3)ccc2O[C@@H]1CN(C)Cc1ccc2c(c1)OCO2 | inactive: 0.997 |
| CN(C)S(=O)(=O)N1C[C@H]2C[C@H](C(=O)Nc3cccnc3)[C@@H](C1)O2 | inactive: 0.989 |
| C[C@@H]1CN([C@@H](C)CO)C(=O)c2cc(NC(=O)Nc3ccc(C(F)(F)F)cc3)ccc2O[C@H]1CN(C)Cc1ccc(Cl)c(Cl)c1 | inactive: 1.02 |
| C[C@H](CO)N1C[C@H](C)[C@H](CN(C)S(=O)(=O)c2cn(C)cn2)Oc2ncc(C#CC(C)(C)O)cc2C1=O | inactive: 1.01 |
| O=C(C[C@@H]1CC[C@@H]2[C@H](COC[C@@H](O)CN2C(=O)c2ccccc2)O1)NCCCN1CCOCC1 | inactive: 0.999 |
| C[C@@H]1CCCCO[C@@H](CN(C)C(=O)Cc2ccccc2)[C@H](C)CN([C@@H](C)CO)C(=O)c2cc(NS(=O)(=O)c3cccs3)ccc2O1 | inactive: 1.01 |
| C[C@@H]1CN([C@@H](C)CO)C(=O)CCCn2nncc2CO[C@H]1CN(C)C(=O)Nc1ccc2c(c1)OCO2 | inactive: 0.988 |
| NCc1nncn1-c1ccccc1 | inactive: 0.999 |
| C[C@H]1CCCCO[C@H](CN(C)CC2CC2)[C@@H](C)CN([C@@H](C)CO)C(=O)c2cc(NC(=O)Nc3ccc4c(c3)OCO4)ccc2O1 | inactive: 0.986 |
| NCc1cccc2c1OCCCO2 | inactive: 0.991 |
| C[C@@H]1CN([C@@H](C)CO)C(=O)c2cc(NS(=O)(=O)c3ccccc3)ccc2O[C@H]1CN(C)Cc1ccc(Oc2ccccc2)cc1 | inactive: 0.993 |
| C[C@@H]1CN([C@@H](C)CO)C(=O)c2cc(NC(=O)c3ccccc3)ccc2O[C@@H](C)CCCCO[C@H]1CN(C)S(=O)(=O)c1cccs1 | inactive: 1.01 |
| O=C(C[C@H]1CC[C@H]2[C@@H](COC[C@H](O)CN2Cc2cc(F)ccc2F)O1)N[C@@H]1CCN(Cc2ccccc2)C1 | inactive: 0.96 |
| Cc1ccc(S(=O)(=O)Nc2ccc3c(c2)C(=O)N([C@@H](C)CO)C[C@H](C)[C@H](CN(C)Cc2ccccc2)OCCCC[C@H](C)O3)cc1 | inactive: 0.972 |
| COCCNC(=O)C[C@H]1CC[C@H]2[C@@H](COC[C@H](O)CN2C(=O)Nc2ccccc2OC)O1 | inactive: 1.02 |
| C[C@@H]1CN([C@H](C)CO)C(=O)Cc2cc(NC(=O)c3ccncc3)ccc2O[C@@H]1CN(C)C(=O)NC1CCCCC1 | inactive: 0.98 |
| C[C@H](CO)N1C[C@H](C)[C@H](CN(C)Cc2ccc(Cl)c(Cl)c2)Oc2ccc(NC(=O)CCCCCC(=O)Nc3ccccc3N)cc2CC1=O | inactive: 0.982 |
| C[C@H]1CN([C@@H](C)CO)C(=O)Cc2cc(NC(=O)Cn3cnnn3)ccc2O[C@@H]1CN(C)CC1CCCCC1 | inactive: 0.932 |
| CN(C)CC(=O)N1[C@@H]2Cn3c(ccc(-c4ccncc4)c3=O)[C@H]1[C@@H](C(=O)NC1CCC1)[C@@H]2CO | inactive: 0.993 |

| Compound | relative growth |
| --- | --- |
| C[C@@H]1CN([C@H](C)CO)C(=O)c2cc(NC(=O)c3ccncc3)ccc2O[C@H]1CN(C)Cc1ccncc1 | inactive: 0.985 |
| C[C@H](CO)N1C[C@H](C)[C@@H](CN(C)C(=O)Nc2ccc(C(F)(F)F)cc2)OCCCC[C@H](C)Oc2ccc(NC(=O)c3ccccc3)cc2C1=O | inactive: 1.04 |
| C[C@@H]1CN([C@H](C)CO)C(=O)c2cc(C#Cc3ccccc3F)cnc2O[C@@H]1CN(C)C(=O)Cc1ccncc1 | inactive: 0.98 |
| COc1ccc(S(=O)(=O)Nc2cccc3c2O[C@@H](CN(C)Cc2ccncc2)[C@@H](C)CN([C@@H](C)CO)C3=O)cc1 | inactive: 0.972 |
| C[C@H]1CCCCO[C@@H](CN(C)C(=O)c2ccccc2)[C@@H](C)CN([C@@H](C)CO)C(=O)c2cc(NS(=O)(=O)c3ccc(Cl)cc3)ccc2O1 | inactive: 1.02 |
| COc1ccc(CN(C)C[C@@H]2OCCCC[C@@H](C)Oc3ccc(NC(=O)Nc4ccccc4)cc3C(=O)N([C@H](C)CO)C[C@@H]2C)cc1 | inactive: 0.945 |
| COc1ccc(S(=O)(=O)N(C)C[C@@H]2OCCCC[C@@H](C)Oc3ccc(NC(=O)C4CCCCC4)cc3C(=O)N([C@@H](C)CO)C[C@@H]2C)cc1 | inactive: 1.03 |
| Cc1cc(C(C)(C)C)c(O)c(C)c1CC1=NCCN1.Cl | inactive: 1.09 |
| C[C@@H]1CCCCO[C@H](CN(C)C(=O)C2CCCCC2)[C@@H](C)CN([C@@H](C)CO)C(=O)c2cc(NC(=O)Nc3ccc(F)cc3)ccc2O1 | inactive: 1.05 |
| C[C@@H]1CN([C@H](C)CO)C(=O)c2cc(NC(=O)c3ccccc3)ccc2O[C@@H](C)CCCCO[C@@H]1CN(C)S(=O)(=O)c1ccccc1 | inactive: 1.05 |
| O=C1N[C@H](Cc2c[nH]c3ccccc23)COC(=O)[C@@H](Cc2ccc(F)cc2)CC=CC[C@@H]1CC(=O)N(CCO)Cc1ccccc1 | inactive: 1 |
| C[C@@H]1CN([C@H](C)CO)S(=O)(=O)c2ccc(-c3ccncc3)cc2O[C@H]1CN(C)C(=O)c1cccc(F)c1 | inactive: 0.973 |
| C[C@@H]1CN([C@H](C)CO)C(=O)Cc2cc(NC(=O)CCCN(C)C)ccc2O[C@H]1CN(C)S(=O)(=O)c1cccs1 | inactive: 0.998 |
| C[C@H]1CN([C@@H](C)CO)C(=O)c2cc(NC(=O)Nc3cccc4ccccc34)ccc2O[C@@H]1CN(C)C(=O)NC1CCCCC1 | inactive: 1.02 |
| C[C@@H]1CN([C@@H](C)CO)C(=O)c2cc(NC(=O)CCCN(C)C)ccc2O[C@@H](C)CCCCO[C@H]1CN(C)CC1CCCCC1 | inactive: 1 |
| C[C@@H]1CCCCO[C@@H](CN(C)S(=O)(=O)c2ccc(Cl)cc2)[C@@H](C)CN([C@@H](C)CO)C(=O)c2cc(NC(=O)c3ccncc3)ccc2O1 | inactive: 1.01 |
| C[C@@H]1CN([C@@H](C)CO)C(=O)c2ccccc2-c2ccccc2CO[C@@H]1CN(C)S(=O)(=O)c1cn(C)cn1 | inactive: 1.01 |
| C[C@H](CO)N1C[C@H](C)[C@@H](CN(C)C(=O)Nc2ccccc2)OCCCC[C@H](C)Oc2ccc(NC(=O)c3ccccc3)cc2C1=O | inactive: 1.02 |
